Assay results taken from paper PMC5476798.
These are yes or no findings as the source states them, for the method shown. Binding seen in cells or lysates may run through a third protein. Some entries that bind do so weakly or less than the wild type. For some of these results: Sequences can lack the tags named with a protein.

What was measured:
[1] = target: T1, GST-Tom22ΔN (S. cerevisiae) (UniProt P49334); test: pull-down; GST-Tom22ΔN on Glutathione Sepharose 4b; mitochondria lysed in GST buffer (20 mM HEPES-KOH, pH 7.5, 10 mM Mg-acetate, 100 mM K-acetate, 10% glycerol) with 1% digitonin, 4 °C; elution by thrombin (Supplementary Fig. 3b); only the target purified
T1 sequence: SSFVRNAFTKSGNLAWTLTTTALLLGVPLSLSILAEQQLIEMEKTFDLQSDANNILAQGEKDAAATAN

[2] = target: T2, _(ProtA)Sam50 (S. cerevisiae) (UniProt P53969); test: pull-down; whole-cell extracts of ProtA-Sam50 cells expressing wild-type or mutant mdm10 forms, 1% digitonin; IgG-Sepharose, elution with TEV protease; SDS-PAGE and immunodetection (Fig. 2a)
T2 sequence: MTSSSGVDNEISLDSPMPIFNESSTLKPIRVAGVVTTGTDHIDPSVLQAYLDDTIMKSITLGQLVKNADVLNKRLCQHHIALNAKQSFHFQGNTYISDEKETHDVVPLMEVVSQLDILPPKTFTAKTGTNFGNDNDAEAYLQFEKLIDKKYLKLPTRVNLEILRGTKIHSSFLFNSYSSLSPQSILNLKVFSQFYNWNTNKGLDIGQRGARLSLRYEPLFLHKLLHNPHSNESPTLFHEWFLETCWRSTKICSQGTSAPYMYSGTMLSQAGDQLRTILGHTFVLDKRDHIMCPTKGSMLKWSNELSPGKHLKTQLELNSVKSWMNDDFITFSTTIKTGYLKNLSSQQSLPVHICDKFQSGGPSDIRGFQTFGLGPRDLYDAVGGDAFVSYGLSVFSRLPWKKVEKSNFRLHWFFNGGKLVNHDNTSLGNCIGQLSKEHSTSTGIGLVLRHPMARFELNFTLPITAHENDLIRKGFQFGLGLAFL

[3] = target: T2, _(ProtA)Sam50 (S. cerevisiae); test: pull-down; whole-cell extracts of ProtA-Sam50 cells expressing wild-type or mutant mdm10 forms, 1% digitonin; IgG-Sepharose, elution with TEV protease; eluate on blue native electrophoresis, immunodetection with anti-Mdm10 (Fig. 2b, upper panel)
[4] = target: T3, Tom7HA (S. cerevisiae) (UniProt P53507); test: co-IP; mitochondria with HA-tagged small Tom proteins lysed with 1% digitonin; anti-HA affinity matrix, 1 h at 4 °C; elution with SDS sample buffer, immunodetection (Fig. 4d)
T3 sequence: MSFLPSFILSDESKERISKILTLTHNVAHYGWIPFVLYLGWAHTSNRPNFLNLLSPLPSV

Measured: binding

B1: Mdm10 (mitochondrial distribution and morphology protein Mdm10), wild type (protein, UniProt P18409 1-493)
chain: MLPYMDQVLRAFYQSTHWSTQNSYEDITATSRTLLDFRIPSAIHLQISNKSTPNTFNSLDFSTRSRINGSLSYLYSDAQQLEKFMRNSTDIPLQDATETYRQLQPNLNFSVSSANTLSSDNTTVDNDKKLLHDSKFVKKSLYYGRMYYPSSDLEAMIIKRLSPQTQFMLKGVSSFKESLNVLTCYFQRDSHRNLQEWIFSTSDLLCGYRVLHNFLTTPSKFNTSLYNNSSLSLGAEFWLGLVSLSPGCSTTLRYYTHSTNTGRPLTLTLSWNPLFGHISSTYSAKTGTNSTFCAKYDFNLYSIESNLSFGCEFWQKKHHLLETNKNNNDKLEPISDELVDINPNSRATKLLHENVPDLNSAVNDIPSTLDIPVHKQKLLNDLTYAFSSSLRKIDEERSTIEKFDNKINSSIFTSVWKLSTSLRDKTLKLLWEGKWRGFLISAGTELVFTRGFQESLSDDEKNDNAISISATDTENGNIPVFPAKFGIQFQYST
binds: [1] | [2] | [3] | [4]
